Measured values from PubChem BioAssay AID504706 (National Center for Advancing Translational Sciences (NCATS), 2011).
In all, about 320,000 compounds went through this assay and about 200 (0.062%) were called active. The shares of active, inactive and inconclusive entries below differ from those in the screen. The call rests on the fitted dose curve; in most records, active means well fitted activation curve with a large enough effect; inconclusive means small, poorly fitted or top-dose-only effect; inactive means no such curve, though single readings can be large or run the other way. No potency is given beside an inconclusive call; the fits are too rough.

experiment: qHTS assay for re-activators of p53 using a Luc reporter; settings: H1299 p53-A138V BP100-luciferase reporter, luminescence, 24 h; series mostly up to 92.2 µM; further: nearly all actives have a fitted effect of over 45% in size
Procedure, shortened: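 H1299 (p53-null), stable ts p53-A138V + BP100-Luc; 1000 cells/well, Opti-MEM/10% FBS; cpd 4 pt, 1:5; 24 h, 37 deg C, 5% CO2; detection reagent 10 min RT; luminescence.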
Potency means the concentration at half of the fitted maximal effect; tags describe the fitted curve by direction and shape.

Compound | Potency
N/C(=N\OC(=O)c1ccc(Cl)cc1)c1ccc(Cl)cc1 | inconclusive [activator, partial curve, poor fit]
Cc1cc(C)c(NC(=O)COC(=O)Cc2cccs2)c(C)c1 | inactive
C/C(=N\Nc1ccc(Cl)c(C(=O)O)c1)c1ccccn1 | inactive
c1ccc(-c2nc3ccccc3s2)nc1 | inconclusive [activator, partial curve, poor fit]
CC(=O)N1CCOc2ccc(S(=O)(=O)N3CC(C)CC(C)C3)cc21 (stereo not drawn) | inactive
CCCCOC(=O)c1[nH]c(C)c(C(=O)OC)c1C | inconclusive [activator, partial curve, poor fit]
Nc1ccc(Cl)c(NC(=O)c2cccs2)c1 | inconclusive [activator, single point]
O=C(c1ccc(Cl)s1)N1CCc2ccccc21 | inconclusive [activator, partial curve, poor fit]
C/C(=N/NC(=O)c1cccs1)c1c(C)[nH]n(-c2nc3ccccc3s2)c1=O | inconclusive [activator, full curve]
CC(C)Nc1cc(C(C)(C)C)nc2c(-c3ccccc3)cnn12 | inconclusive [activator, partial curve, poor fit]
O=C(c1cc(-c2ccccc2O)on1)N1CCCCCC1 | inconclusive [activator, partial curve, poor fit]
Cc1cc(=O)oc2cc(NC(=O)c3ccccc3Cl)ccc12 | inactive
CC(C)Oc1ccc(CCC(=O)N/N=C/c2ccc3c(c2)OCO3)cc1 | inactive
Cc1nc2cc(Nc3ccncc3)ccc2s1 | inactive
O=C(CSc1ncnc2ccccc12)c1ccco1 | inactive
CCCCOc1cccc(NC(=O)CSc2nncn2C)c1 | inactive
Cc1nn(Cc2ccccc2)c(C)c1NC(=O)c1cc(-c2ccc3c(c2)OCO3)on1 | inactive
O=C(CSc1nc2ccccc2[nH]1)c1ccc2c(c1)OCO2 | inconclusive [activator, partial curve, poor fit]
O=C(Oc1ccc2ccccc2c1)c1ccccc1 | inactive
O=C(Nc1ccc(-c2nc3ncccc3o2)cc1)c1ccc([N+](=O)[O-])o1 | inactive
CSc1n[nH]c2nc3c(c(=O)n12)C1(CCCC1)Cc1ccccc1-3 | inactive
CCC(c1nnnn1CCOC)N(Cc1cc2c(C)cc(C)cc2[nH]c1=O)CC1CCCO1 (stereo not drawn) | inactive
COC(=O)c1ccc(N=Nc2ccccc2)cc1 | inconclusive [activator, partial curve, poor fit]
CCCCc1c(C)nn(-c2nnc3c4ccccc4n(C)c3n2)c1C | inconclusive [activator, partial curve, poor fit]

Compound | Potency
Cc1cc(C)n(CC(=O)NNC(=O)CC(C)c2ccccc2)n1 (stereo not drawn) | inconclusive [activator, single point]
O=C(Nc1ccc(Cl)cc1)Nc1csc([N+](=O)[O-])c1 | inconclusive [activator, partial curve, poor fit]
Cc1cc(C)c(OCC(=O)Nc2cccc(O)c2)cc1C | inconclusive [activator, partial curve, poor fit]
CCn1c(SCC(=O)NCCc2ccccc2)nnc1-c1cccs1 | inactive
O=C(O)c1cccc(NC(=S)NC(=O)c2cccc(OCc3ccccc3)c2)c1 | inactive
NC(=O)c1ccc2c(c1)OCCO2 | inactive
CCOCCCNC(=O)c1ccc2c(c1)OCO2 | inconclusive [activator, partial curve, poor fit]
O=C(N/N=C/c1cc(Cl)ccc1O)C(=O)Nc1ccccc1OC(F)(F)C(F)F | inconclusive [activator, partial curve, poor fit]
COc1ccc(/C(N)=C/C(=O)C(C)(C)C)cc1 | inconclusive [activator, single point]
Cc1nn(C)cc1/C=C/C(=O)c1ccccc1 | inconclusive [activator, partial curve, poor fit]
O=C(NCCS(=O)(=O)N1CCN(c2ccccc2)CC1)c1ccc(Br)o1 | inactive
Cc1[nH]c2ccccc2c1C(=O)/C=C/c1ccccc1Cl | inconclusive [activator, full curve, poor fit]
CC(C)OC(=O)c1cc2c(ccn2C)n1CC(=O)N(Cc1ccccc1)c1ccccc1 | inactive
COc1ccc2cc(C(=O)c3ccccc3)c(=O)oc2c1 | inconclusive [activator, partial curve, poor fit]
Cc1ccc(-n2nc(-c3ccc(N)cc3)cc2N)cc1 | inconclusive [activator, partial curve, poor fit]
O=C(CSc1nnc(C2CC2)n1C1CC1)c1ccc(F)c(F)c1 | inconclusive [activator, partial curve, poor fit]
Cc1[nH]n(-c2ccc([N+](=O)[O-])cc2)c(=O)c1C=NCCc1ccc(S(N)(=O)=O)cc1 | inactive
COc1ccc(C2CC(c3ccc(C)o3)=NN2C(C)=O)cc1 (stereo not drawn) | inconclusive [activator, partial curve, poor fit]
O=C(NCc1ccco1)Nc1ccc2nsnc2c1 | inconclusive [activator, partial curve, poor fit]
Clc1ccccc1-c1nnc(-c2ccccc2Cl)o1 | inconclusive [activator, partial curve, poor fit]
CCSc1nnc(NC(=O)c2ccc3c(c2)OCO3)s1 | inconclusive [activator, full curve, poor fit]
Cc1ccc2nc(NCc3ccco3)c(C=NCc3ccco3)c(=O)n2c1 | inconclusive [activator, partial curve, poor fit]
Fc1ccc(-c2nnc(Cc3ccc(Cl)cc3)o2)cc1 | inactive
O=C1C2CC=C(Cl)CC2C(=O)N1CCc1ccccc1 (stereo not drawn) | inconclusive [activator, single point]
